Screen size: about 310,000 compounds; about 2,200 (0.71%) showed an effect of 50% or more. Effects have a minus sign here. The list shows a part of the results.
Target: human ether-à-go-go-related gene (hERG) potassium channel (human, UniProt Q12809)
Test: primary screen, population patch clamp on CHO cells stably expressing hERG

Chain of human ether-à-go-go-related gene (hERG) potassium channel (Q12809 whole entry, looked up): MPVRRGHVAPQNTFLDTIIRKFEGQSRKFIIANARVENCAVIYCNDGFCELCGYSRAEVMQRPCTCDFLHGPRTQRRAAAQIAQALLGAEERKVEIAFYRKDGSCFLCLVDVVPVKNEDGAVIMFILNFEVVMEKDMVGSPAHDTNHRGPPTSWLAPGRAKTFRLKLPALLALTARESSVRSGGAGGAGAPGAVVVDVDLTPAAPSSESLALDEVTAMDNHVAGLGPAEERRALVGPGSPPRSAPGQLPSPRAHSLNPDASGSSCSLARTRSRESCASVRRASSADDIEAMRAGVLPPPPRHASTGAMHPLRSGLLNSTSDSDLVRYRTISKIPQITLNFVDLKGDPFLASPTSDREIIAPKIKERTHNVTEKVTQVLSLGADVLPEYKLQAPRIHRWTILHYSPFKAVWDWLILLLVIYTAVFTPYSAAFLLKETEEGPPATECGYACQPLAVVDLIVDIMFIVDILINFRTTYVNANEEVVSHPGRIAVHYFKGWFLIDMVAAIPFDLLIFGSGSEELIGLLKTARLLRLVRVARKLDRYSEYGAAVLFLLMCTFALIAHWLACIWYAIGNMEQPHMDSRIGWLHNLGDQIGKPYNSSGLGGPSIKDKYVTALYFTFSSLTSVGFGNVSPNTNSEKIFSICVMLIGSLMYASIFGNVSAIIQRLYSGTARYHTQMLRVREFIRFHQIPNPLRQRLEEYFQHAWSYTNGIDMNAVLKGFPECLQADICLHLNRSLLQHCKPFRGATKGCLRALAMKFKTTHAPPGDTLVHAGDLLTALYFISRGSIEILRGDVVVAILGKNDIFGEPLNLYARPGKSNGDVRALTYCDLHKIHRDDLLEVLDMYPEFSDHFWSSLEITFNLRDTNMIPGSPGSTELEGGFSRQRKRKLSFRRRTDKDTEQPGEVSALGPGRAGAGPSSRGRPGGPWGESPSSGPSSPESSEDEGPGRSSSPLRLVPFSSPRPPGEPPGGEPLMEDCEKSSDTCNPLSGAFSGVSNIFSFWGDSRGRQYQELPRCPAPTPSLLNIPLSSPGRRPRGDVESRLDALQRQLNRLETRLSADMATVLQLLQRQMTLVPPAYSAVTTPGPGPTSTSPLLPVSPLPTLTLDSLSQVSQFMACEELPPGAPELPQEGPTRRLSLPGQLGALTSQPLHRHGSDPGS

Structure (SMILES) | hERG current change (%, negative = inhibition) at 1uM [%]
O=C(Nc1ccccc1O)c1ccc2c(c1)C(=O)N(N1C(=O)c3ccccc3C1=O)C2=O | 9.83
O=C(O)C1CC(c2ccccc2F)=NO1 (stereo not drawn) | 10.9
CC1(C)Cc2c(ccc3ccccc23)/C(=C/C#N)N1 | 23.1
C/C=C/c1ccc(OCc2cc(=O)n3cc(C)ccc3n2)c(OC)c1 | -5.19
Cc1ccc(C(=O)N/C(N)=N/c2nc3ccccc3o2)cc1 | 9.08
CN(C)C(=O)CC12CC3CC(C1)CC(CC(=O)N(C)C)(C3)C2 | 2.51
CCCCCCC(=O)NC(Nc1ccc(S(N)(=O)=O)cc1)C(Cl)(Cl)Cl (stereo not drawn) | 3.92
CCOc1ccc(C(CC(=O)O)NC(=O)C2c3ccccc3Oc3ccccc32)cc1 (stereo not drawn) | 10.4
COc1ccc(C2(C)ON(c3ccccc3C(F)(F)F)C2=O)cc1 (stereo not drawn) | 17.6
N#Cc1ccccc1NC(=O)CSc1nnc(-c2ccccc2O)n1-c1ccccc1 | 15
O=C(NC1CCN(Cc2ccccc2)CC1)c1ccc(N2CC3CC(C2)c2cccc(=O)n2C3)c([N+](=O)[O-])c1 (stereo not drawn) | 26.7
O=C1Cc2cc([N+](=O)[O-])ccc2N1c1c(Cl)cccc1Cl | 7.64
COc1ccc(CSc2nc3ccccc3c(=O)n2CCCN2CCOCC2)cc1F | -4.21
Cc1cc2nccc(-c3ccccn3)n2n1 | 2.32
S=C(Nc1ccc(Cl)cc1Cl)NC1CCN(Cc2ccccc2)CC1 | 0.0454
COc1ccc(C(CCNC(C)c2ccccc2)c2ccc(F)cc2)cc1 (stereo not drawn) | 11.4
COc1ccc2ccc(=O)oc2c1CC=C(C)C | 14
COc1ccc(NC(=O)CSc2ccc(NC(C)=O)cc2)cc1S(=O)(=O)N1CCCCC1 | 7.16
CC(/C=N/NC(=O)c1cc(-c2cccs2)[nH]n1)=C\c1ccccc1 | 3.6
Oc1ccc(Br)cc1CNc1nccs1 | 15.7
COC(=O)c1sc(N2C(=O)C(O)=C(C(=O)c3ccc(C)o3)C2c2ccc(OC)c(OC)c2)nc1C (stereo not drawn) | 8.5
O=C(c1cc2cc([N+](=O)[O-])ccc2oc1=O)N1CCN(c2ncccn2)CC1 | 9.91

Structure (SMILES) | hERG current change (%, negative = inhibition) at 1uM [%]
Cc1cccn2c(=O)nc(SCC(=O)NC3CCCC3)nc12 | 4.84
Cc1cccc(NC(=O)c2cccc(C(=O)Nc3cccc(C)n3)c2)n1 | 5.03
Cc1cc(C)cc(Nc2nc3ccc(C)cc3n3cnnc23)c1 | 9.93
CCc1ccc(C2=NN(CCC(=O)NC3CC3)C(=O)CC2)cc1 | 11.3
C/C(CC(=O)Nc1ccc(Cl)c(C(F)(F)F)c1)=N\NC(=O)c1cnccn1 | -13.6
CS/C(=C\[N+](=O)[O-])Nc1ccccc1 | 21.3
CCOC(=O)Nc1ccc2c(c1)N(C(=O)OCCN(C)C)c1ccccc1CC2.Cl | -14.5
CN(C)CCOC1c2ccccc2CSc2ccccc21.O=CO (stereo not drawn) | 5.14
COc1cc(C(=O)NCc2ccc3c(c2)OCO3)c([N+](=O)[O-])cc1OC | 12
C/C(=N\Nc1cccc2cccnc12)c1ccc(N)cc1 | 4.13
COc1ccc2[nH]cc(CCNC(=O)c3ccccc3Cl)c2c1 | 12.1
CC(=O)c1cccc(NC(=O)N[C@@H](CC(C)C)C(=O)O)c1 | 3.17
Fc1ccc(-c2csc(/C=C/c3ccc4c(c3)OCO4)n2)cc1 | 15.1
O=C(CSc1ncn[nH]1)c1ccccc1 | 14.6
Cc1cccnc1NC(=O)NC(=O)c1ccc(C(C)(C)C)s1 | 14.1
COc1ccc(C=NC(CO)C(O)c2ccc([N+](=O)[O-])cc2)cc1 (stereo not drawn) | 14.6
CCN(CC)CCOc1nc(C)nc2c1oc1ccccc12.Cl | -32
O=C(Cn1cc(C(F)(F)F)ccc1=O)N/N=C/c1ccc(Cl)c(Cl)c1 | -1.14
CN(C)C(=O)c1ccc(NC(=O)c2cccc(S(=O)(=O)N3CCCCCC3)c2)cc1 | 1.1
CN(C=[N+](C)C)c1cccc2c1C(=O)c1ccccc1C2=O.[Cl-] | 1.22
CCN(CC)S(=O)(=O)c1cc(C(=O)N2CCc3ccccc32)ccc1Cl | 8.71
Cc1cc(NCc2ccco2)n2c(nc3ccccc32)c1C#N | 9.3

Structure (SMILES) | hERG current change (%, negative = inhibition) at 1uM [%]
Cc1ccc(Cl)cc1N1CCN(Cc2nc3c(c(=O)[nH]c(=O)n3C)n2Cc2ccccc2F)CC1 | 10.6
COc1cc(C(=O)NC(=S)NCc2ccco2)cc(OC)c1OC | 3.84
Cc1cc(NC(=O)Cn2cc([N+](=O)[O-])cn2)no1 | 12.8
CCOC(=O)CC(=O)CSc1nc2ccccc2c(=O)n1-c1ccc(C(=O)NCCOC)cc1 | 11.6
CC1(C)C(=O)OC(c2ccco2)C(C)(C)C1=O (stereo not drawn) | -1.51
CCN(c1ccccc1)S(=O)(=O)c1ccc(Cl)c(NC(=O)COC(=O)c2cc(O)c3ccccc3c2O)c1 | 16.3
Cc1ccc(S(=O)(=O)c2nnn3c2nc(NCCCN2CCCC2=O)c2ccccc23)cc1C | 2.37
Cc1ccc(-c2nc3c(c(=O)c4ccccc4n3C)c(=O)n2Cc2ccco2)cc1 | 12.8
O=S(=O)(c1cccc(C(F)(F)F)c1)N1CCC(CO)(CCCc2ccccc2)CC1 | 10.7
N#Cc1ccccc1S(=O)(=O)N1CCN(C(=O)c2cc(-c3ccccc3)nn2-c2ccccc2)CC1 | 18.9
COC(c1ccccc1)c1nnc(CCC(=O)NCc2ccc3ncccc3c2)o1 (stereo not drawn) | -11.5
O=C(CS(=O)(=O)c1ccc(F)cc1)Nc1nnc(-c2cccs2)o1 | 11.2
OCCOCCNc1ncnc2c1cnn2-c1ccccc1 | 8.5
CC(C)n1c(-c2ccncc2)n[nH]c1=S | 11.8
CC1CN(C(=O)COC(=O)c2ccc(N)c([N+](=O)[O-])c2)CC(C)O1 (stereo not drawn) | 2.31
CCOc1cc(C2C(C#N)=C(N)OC3=C2C(=O)CC(C)(C)C3)cc([N+](=O)[O-])c1O (stereo not drawn) | 6.51
CC(=O)NC(Cc1ccc(F)c(F)c1)C(=O)NC1CCN(c2nnnn2-c2ccccc2)CC1 (stereo not drawn) | 1.39
COc1ccc(CNC(=O)c2cnccn2)cc1 | 2.57
O=S(=O)(NCc1ccc(F)cc1)c1ccc(Br)cc1Br | 14.3
O=C(O)CCn1c(=O)c2ccccc2c2ccccc2c1=O | 7.1
COc1cccc(OC)c1C(=O)N1CCN(Cc2ccncc2)CC1 | -2.4
COc1ccc(NC(=O)CN2C(=O)COc3ccc(S(=O)(=O)N4CCOCC4)cc32)cc1Cl | 10

Structure (SMILES) | hERG current change (%, negative = inhibition) at 1uM [%]
Cc1ccc(NC(=O)C(=O)NCC2CCCN2S(=O)(=O)c2cccs2)cc1C (stereo not drawn) | 9.36
Cc1oc2cc3oc(=O)c(CC(=O)N[C@H](C(=O)N[C@@H](C(=O)O)c4ccccc4)C(C)C)c(C)c3cc2c1C | 1.62
Cc1ccc(NS(=O)(=O)c2ccc(OCC(=O)NCc3cccnc3)cc2)cc1 | -2.13
COC(=O)CC1COc2ccccc2N1C(=O)c1cc(OC)c(OC)c(OC)c1 (stereo not drawn) | 13.1
COCCNC(=O)COC(=O)CSCc1nc2ccccc2s1 | -1.22
NC(=O)c1ccccc1NC(=O)c1ccc2c(c1)OCO2 | 16
N#Cc1nc(-c2ccc([N+](=O)[O-])cc2)oc1N1CCCCC1 | 12.3
CCOC(=O)C1CCCCN1Cc1cccc(F)c1 (stereo not drawn) | 16.9
C=CCc1ccc(OCCOCCNCCOC)c(OC)c1 | 11.7
COc1ccc(OC)c(NC(=O)CN2C(=O)COc3ccc(C)cc32)c1 | 7.48
CCOc1ccc(-c2c(C(=O)N/N=C/c3ccco3)nnn2-c2nonc2N)cc1 | 21.6
O=C(N/C(=C\c1ccccc1)C(=O)N1CCOCC1)c1ccc(Br)o1 | 10.6
Cc1nc(NC(=O)c2ccc([N+](=O)[O-])cc2Cl)sc1C(=O)N(C)C | 10.3
CC(C)(C)NC(=O)NC(=O)CSc1ncn[nH]1 | 13.2
C/C=C\C(=O)Nc1cccc(C2=NOC3(C2)C[C@H](C(N)=O)N(C(=O)Cc2ccc([N+](=O)[O-])cc2)C3)c1 (stereo partly drawn) | 4.09
Clc1ccc(Cn2ncc3c(NCc4ccccc4)ncnc32)c(Cl)c1 | 10
O=C(Cn1nc(C(F)(F)F)c2c1CCC2)NCc1ccc(F)cc1 | 11.5
CC(=O)Nc1ccc(SCC(=O)NCCc2ccc(F)cc2)cc1 | 4.51
COc1ccc(-c2csc(N(CC(C)C)C(=O)c3ccco3)n2)cc1 | 15.5
Cc1cc(C)n2c(SCc3nnc(-c4cccs4)o3)nnc2n1 | 11.2
CC1(C)CC(=O)c2cnc(N3CCN(c4ccccc4)CC3)nc2C1 | 8.02

Reference: PMC4336329 (PLoS ONE, 2015)
